# Experimental data taken from PMC4336329 (PLoS ONE, 2015).
# In all, about 310,000 compounds went through this assay and about 14,000 (4.5%) showed an effect of 50% or more. Effects have a minus sign here. Some of the results follow.
# Biological target: human ether-à-go-go-related gene (hERG) potassium channel (human, UniProt Q12809)
# Test: primary screen, population patch clamp on CHO cells stably expressing hERG
# 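Further: peak tail current of the secondary pulse compared with the same well before compound.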
# Sequence of human ether-à-go-go-related gene (hERG) potassium channel (Q12809 whole entry, looked up): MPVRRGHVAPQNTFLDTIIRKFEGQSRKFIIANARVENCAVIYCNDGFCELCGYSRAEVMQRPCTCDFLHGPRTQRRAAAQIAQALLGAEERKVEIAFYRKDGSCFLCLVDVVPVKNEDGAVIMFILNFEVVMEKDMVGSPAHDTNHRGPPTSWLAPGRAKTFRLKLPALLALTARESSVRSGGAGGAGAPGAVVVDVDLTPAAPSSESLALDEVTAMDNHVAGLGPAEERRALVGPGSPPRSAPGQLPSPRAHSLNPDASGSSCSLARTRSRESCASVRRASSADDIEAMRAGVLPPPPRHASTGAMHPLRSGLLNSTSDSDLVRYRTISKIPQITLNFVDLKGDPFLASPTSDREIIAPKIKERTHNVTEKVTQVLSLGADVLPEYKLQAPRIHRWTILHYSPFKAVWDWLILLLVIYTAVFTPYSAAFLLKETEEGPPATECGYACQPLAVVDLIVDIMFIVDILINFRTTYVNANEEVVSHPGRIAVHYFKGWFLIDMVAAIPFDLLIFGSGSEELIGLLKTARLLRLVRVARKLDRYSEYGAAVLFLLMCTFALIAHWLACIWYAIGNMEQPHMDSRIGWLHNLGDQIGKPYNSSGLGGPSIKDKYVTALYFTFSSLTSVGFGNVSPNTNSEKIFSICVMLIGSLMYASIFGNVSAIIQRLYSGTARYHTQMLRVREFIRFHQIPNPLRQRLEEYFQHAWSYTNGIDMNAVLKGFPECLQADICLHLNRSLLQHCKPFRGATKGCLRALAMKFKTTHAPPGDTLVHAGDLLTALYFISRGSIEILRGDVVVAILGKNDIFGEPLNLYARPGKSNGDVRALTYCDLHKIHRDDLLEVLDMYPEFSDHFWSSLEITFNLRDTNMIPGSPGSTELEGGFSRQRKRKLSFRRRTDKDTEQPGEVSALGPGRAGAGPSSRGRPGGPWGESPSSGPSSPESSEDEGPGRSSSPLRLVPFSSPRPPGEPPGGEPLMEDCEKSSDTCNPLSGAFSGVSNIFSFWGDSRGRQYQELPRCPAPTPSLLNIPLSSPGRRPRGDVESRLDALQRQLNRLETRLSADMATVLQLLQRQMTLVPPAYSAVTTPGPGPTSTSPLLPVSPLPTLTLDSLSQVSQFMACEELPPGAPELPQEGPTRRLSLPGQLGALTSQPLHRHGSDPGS
row,SMILES,"hERG current change (%, negative = inhibition) at 10uM"
1,CCOC(=O)c1sc2nc3c(cc2c1N)C(=O)CC(C)(C)C3,25.7%
2,O=C(NCCN1CCN(c2cccc(Cl)c2)CC1)c1ccc(CSc2nc3ccncc3[nH]2)cc1,-6.99%
3,COc1cc2c(cc1OC)CN(c1nc(CN3CCCCC3)nc3sc4c(c13)CCCC4)CC2,-81.2%
4,Cc1nc(Cl)sc1C(=O)Nc1cc(F)cc(F)c1,10.4%
5,CCOc1ccc(C2=Nn3c(nnc3-c3cccnc3)SC2)cc1,-20.2%
6,FC(F)(F)c1ccc(Cl)c(-n2c(Cc3cccs3)n[nH]c2=S)c1,8.56%
7,COC(=O)CC1SC(=O)NC1=O (stereo not drawn),19%
8,COc1ccc(S(=O)(=O)N(C)C)cc1NC(=O)COC(=O)CC1CCCC1,-72.8%
9,COc1c(S(=O)(=O)N2CCCC2)ccc(Cl)c1Cl,-0.996%
10,Oc1ccc(Cl)cc1C1=NNC(c2cc(Br)cc3c2OCOC3)C1 (stereo not drawn),21.5%
11,Cc1cccc2cc(/C=N/NC(=O)c3ccncc3)c(Cl)nc12,16.2%
12,CCOc1ccc(C2C(C(=O)/C=C/c3ccco3)=C(O)C(=O)N2CCN2CCOCC2)cc1OC (stereo not drawn),11.9%
13,COc1cc(-c2n[nH]c(=S)n2-c2cc(C(F)(F)F)ccc2Cl)cc(OC)c1OC,-7.46%
14,C1CCC2(CC1)OCC1(CO2)COC2(CCCCC2)OC1,3.07%
15,COc1ccc2[nH]cc(CCNC(=S)NC3CCCC3)c2c1,-0.976%
16,CC(=NCc1ccco1)c1c(O)n(C)c(=O)n(C)c1=O,-18.9%
17,O=C(Cn1nnc(-c2ccccc2)n1)NNC(=O)c1ccco1,14.3%
18,CCOc1ccccc1N(C)C(=O)Cn1ncc2c([nH]c3ccc(C)cc32)c1=O,8%
19,CN(c1ccccc1)S(=O)(=O)c1cccc(C(=O)OCC(=O)NCc2ccco2)c1,-25.1%
20,Cc1cccc(CCNC(=O)c2cccc(N3CCCC3=O)c2)c1,-7.18%
21,Cn1nc(NC(=O)CC(C)(C)CC(=O)O)c2ccccc21,24.5%

row,SMILES,"hERG current change (%, negative = inhibition) at 10uM"
1,CCC1=C(OC(=O)N(CC)CC)N2C(=O)OC(=NCCc3c[nH]c4ccccc34)[C@]2(C)[C@H]2C1=CC[C@H]1C(=O)N(CC)C(=O)[C@H]12,-9.68%
2,OC(c1cccc(OCc2ccccc2)c1)c1nnc(-c2ccccc2)o1 (stereo not drawn),3.25%
3,Cc1ccc(OCC(=O)Nc2nnc(S(=O)(=O)N3CCCCCC3)s2)cc1,11.3%
4,Cc1ccc(NC(=O)C2CCN(S(=O)(=O)c3ccc(F)cc3)CC2)cc1,-6.74%
5,CC[C@H](C)[C@@H]1NC(=O)c2cc([N+](=O)[O-])cc(I)c2NCC[C@@H](C(N)=O)NC(=O)[C@H](CCCN=C(N)N)NC1=O,4%
6,CN(CCOc1ccccc1)CC(O)COc1ccccc1 (stereo not drawn),10.8%
7,Oc1ccc(/C=N/Nc2nn3cnnc3c3ccccc23)cc1,10.7%
8,Fc1ccccc1COc1ccccc1/C=N/Nc1nc(N2CCCC2)nc(N2CCCC2)n1,14.3%
9,COc1ccc2[nH]c3c(c2c1)CCN1C(=O)N([C@@H](C)C(=O)NC2CCN(Cc4ccccc4)CC2)C(=O)[C@]31C,-48.8%
10,O=C(CCSc1ccccc1Cl)NNC(=O)c1ccncc1,-3.37%
11,CN(C(=O)c1cccc(S(=O)(=O)N2CCCCC2)c1)C1CCS(=O)(=O)C1 (stereo not drawn),2.39%
12,COc1ccccc1N1CCN(/N=C/c2cc(OC)c(OC)c(OC)c2)CC1,14%
13,CCc1nnc(NS(=O)(=O)c2ccc(NCc3cc(Cl)cc(Cl)c3O)cc2)s1,1.61%
14,COC(CNC(=O)c1ccc2c(c1)nc(C)n2-c1cccc(F)c1)OC,-8.99%
15,CCOc1ccc(-n2c(-c3ccoc3)nc3ccccc3c2=O)cc1,-8.33%
16,COCCCNc1ncnc2c1cnn2-c1ccc(C)cc1C,-4.32%
17,CS(=O)(=O)c1nc(S(=O)(=O)c2ccc(Cl)cc2)c(NCCCN2CCCC2=O)s1,-27.5%
18,Cc1cn2c(N)c(/C=C3\C=Nc4ccccc43)c(=O)nc2s1,2.43%
19,CN1N=C(C(=O)N2CCCC(N3CCN(c4ccc(F)cc4)CC3)C2)CCC1=O (stereo not drawn),2.78%
20,N#Cc1ccc(N2CCCNCC2)nc1,-88.5%
21,COc1ccccc1C(CC(=O)N1CCCC1)c1ccc2c(c1)OCO2 (stereo not drawn),-3.05%

row,SMILES,"hERG current change (%, negative = inhibition) at 10uM"
1,Cc1ccc(CC2CC(=O)N(CC(=O)O)C2=O)cc1 (stereo not drawn),12%
2,CN(C(=O)COC(=O)C1(C)CC1(Cl)Cl)c1c(N)n(Cc2ccccc2)c(=O)[nH]c1=O (stereo not drawn),1.11%
3,COc1ccc([N+](=O)[O-])cc1/C=N/Nc1nc(N2CCCCC2)nc(N2CCCCC2)n1,-8.89%
4,CC(C)(C)C(=O)NC1(C(F)(F)F)C(=O)Nc2c1c(=O)[nH]c(=O)n2Cc1ccco1 (stereo not drawn),13.5%
5,COc1ccccc1-n1cnc(N)c1C(C)=O,-9.62%
6,COc1ccc2[nH]c3c(=O)n(Cc4ccc(C(=O)NCC5CCCO5)cc4)c(=S)[nH]c3c2c1 (stereo not drawn),10.7%
7,O=C(CCN1C(=O)/C(=C/c2ccc(F)cc2)SC1=S)NCCc1ccc(O)cc1,18.3%
8,CCOC(=O)CNC(=S)N(Cc1ccccc1)Cc1cccnc1,-17.9%
9,CC1=NN(c2nc3ccccc3[nH]2)C(=O)C1Cc1ccccc1 (stereo not drawn),-12.5%
10,Cc1ccc(C)c(C2(O)CC(C)N(C)CC2C)c1 (stereo not drawn),12.8%
11,O=C(N/N=C/c1cc([N+](=O)[O-])ccc1O)c1ccc(COc2ccc3c(c2)CCC3)o1,24.4%
12,Cc1nc2cc(C(F)(F)F)ccc2n1C1CCN(C(=O)N2CCOCC2)CC1,-55.7%
13,ClC1(Cl)CC1CSc1nnc(-c2ccncc2)o1 (stereo not drawn),-16.3%
14,CC(C)c1ccccc1NC(=O)COC(=O)/C=C/c1cccc([N+](=O)[O-])c1,18.4%
15,O=C(NCCCO)Nc1ccc2nc(-c3ccco3)c(-c3ccco3)nc2c1,12.8%
16,CCn1c(SCc2ccc(Cl)cc2Cl)nc2nc3c(cc2c1=O)CCCC3,-0.584%
17,Fc1ccc(-c2onc3ccc(C4OCCO4)cc23)cc1,4.75%
18,O=C(Nc1cccc(S(=O)(=O)N2CCCC2)c1)c1ccc2c(=O)n3c(nc2c1)CCCCC3,-57.1%
19,COc1ccccc1NC(=S)NCC1CCC(CNC(=S)Nc2ccccc2OC)CC1 (stereo not drawn),13.2%
20,O=C(/C=C/c1cccc([N+](=O)[O-])c1)NCCN1C(=O)S/C(=C\c2cccnc2)C1=O,-30.6%
21,Cc1ccc(S(=O)(=O)N(C)C)cc1NC(=O)c1ccccc1Br,8.54%

row,SMILES,"hERG current change (%, negative = inhibition) at 10uM"
1,O=C(NCCCN1CCOCC1)C(=O)NCC1CCCO1 (stereo not drawn),21.7%
2,C/C(=N\N1CCCCCC1)c1c(O)n(-c2ccccc2C)c(=O)[nH]c1=O,-13.7%
3,O=C(O)CN1C(=O)c2ccc(Oc3ccc4c(c3)C(=O)N(CC(=O)O)C4=O)cc2C1=O,-2%
4,CC(=O)Nc1ccc(NC(=O)CCC(=O)OCC(=O)c2cccc([N+](=O)[O-])c2)cc1,-14.3%
5,OC[C@H]1OC(O)[C@H](O)[C@@H]1O (stereo partly drawn),-34.5%
6,N#Cc1nc(COc2ccccc2Cl)oc1NCc1ccc(F)cc1,0.159%
7,CCC1Sc2ccc(S(=O)(=O)CCC(=O)NCc3ccco3)cc2NC1=O (stereo not drawn),0.305%
8,O=C(NCCCn1ccnc1)C1CCCN(S(=O)(=O)c2cc(Cl)ccc2Cl)C1 (stereo not drawn),-60.3%
9,COc1ccc(-c2csc(NC3CCCCC3)n2)c(OC)c1,9.68%
10,Cc1nc2ccccn2c1P(=Nc1ccccc1)(N(C)C)N(C)C,-52.5%
11,CCCn1c(SCC(=O)C(C)(C)C)nc2ccccc21.Cl,-8.31%
12,CCOC(=O)[C@@H]1[C@H]2COc3cc(OC)ccc3[C@H]2N2C(=O)N(c3cccc(Cl)c3)C(=O)[C@]12C,12.5%
13,CN(C)C(CNC(=O)c1cc(S(=O)(=O)N(C)c2ccc(F)cc2)ccc1Cl)c1ccco1 (stereo not drawn),-28.3%
14,Nc1ccc(S(=O)(=O)Nc2nccc(/C=C/c3cccc(Br)c3)n2)cc1,15.2%
15,COc1cccc(CC(NC(C)=O)C(=O)NC2CCN(S(=O)(=O)c3cccc4ccccc34)CC2)c1 (stereo not drawn),3%
16,Cl.Fc1ccc(CCNCc2cccc(Cl)c2)cc1,-16.5%
17,O=S(=O)(c1cccc(F)c1)N1CCc2sccc2C1c1ccc(OC(F)(F)F)cc1 (stereo not drawn),10.8%
18,COc1cc(OC)cc(-c2cc3nc(C)c(CCC(=O)Nc4nc(C)cs4)c(C)n3n2)c1,10%
19,CCN(c1ccccc1)S(=O)(=O)c1cccc(C(=O)NCCN2CCOCC2)c1,-15.3%
20,O=C(NCCCN1CCCCC1)C1CCCN(c2ncnc3c2nc2n3CCCCC2)C1 (stereo not drawn),1.8%
21,COc1ccc(NC(=O)c2cc3ccccc3cc2OC)cc1OC,8.27%
